# Measurements from article PMC4336329 (PLoS ONE, 2015).
# Out of some 310,000 compounds screened, about 2,200 (0.71%) showed an effect of 50% or more. The effect is printed as a negative number. This is one part of the list.
# Molecular target: human ether-à-go-go-related gene (hERG) potassium channel (human, UniProt Q12809)
# Test: primary screen, population patch clamp on CHO cells stably expressing hERG
# Sequence of human ether-à-go-go-related gene (hERG) potassium channel (Q12809 whole entry, looked up): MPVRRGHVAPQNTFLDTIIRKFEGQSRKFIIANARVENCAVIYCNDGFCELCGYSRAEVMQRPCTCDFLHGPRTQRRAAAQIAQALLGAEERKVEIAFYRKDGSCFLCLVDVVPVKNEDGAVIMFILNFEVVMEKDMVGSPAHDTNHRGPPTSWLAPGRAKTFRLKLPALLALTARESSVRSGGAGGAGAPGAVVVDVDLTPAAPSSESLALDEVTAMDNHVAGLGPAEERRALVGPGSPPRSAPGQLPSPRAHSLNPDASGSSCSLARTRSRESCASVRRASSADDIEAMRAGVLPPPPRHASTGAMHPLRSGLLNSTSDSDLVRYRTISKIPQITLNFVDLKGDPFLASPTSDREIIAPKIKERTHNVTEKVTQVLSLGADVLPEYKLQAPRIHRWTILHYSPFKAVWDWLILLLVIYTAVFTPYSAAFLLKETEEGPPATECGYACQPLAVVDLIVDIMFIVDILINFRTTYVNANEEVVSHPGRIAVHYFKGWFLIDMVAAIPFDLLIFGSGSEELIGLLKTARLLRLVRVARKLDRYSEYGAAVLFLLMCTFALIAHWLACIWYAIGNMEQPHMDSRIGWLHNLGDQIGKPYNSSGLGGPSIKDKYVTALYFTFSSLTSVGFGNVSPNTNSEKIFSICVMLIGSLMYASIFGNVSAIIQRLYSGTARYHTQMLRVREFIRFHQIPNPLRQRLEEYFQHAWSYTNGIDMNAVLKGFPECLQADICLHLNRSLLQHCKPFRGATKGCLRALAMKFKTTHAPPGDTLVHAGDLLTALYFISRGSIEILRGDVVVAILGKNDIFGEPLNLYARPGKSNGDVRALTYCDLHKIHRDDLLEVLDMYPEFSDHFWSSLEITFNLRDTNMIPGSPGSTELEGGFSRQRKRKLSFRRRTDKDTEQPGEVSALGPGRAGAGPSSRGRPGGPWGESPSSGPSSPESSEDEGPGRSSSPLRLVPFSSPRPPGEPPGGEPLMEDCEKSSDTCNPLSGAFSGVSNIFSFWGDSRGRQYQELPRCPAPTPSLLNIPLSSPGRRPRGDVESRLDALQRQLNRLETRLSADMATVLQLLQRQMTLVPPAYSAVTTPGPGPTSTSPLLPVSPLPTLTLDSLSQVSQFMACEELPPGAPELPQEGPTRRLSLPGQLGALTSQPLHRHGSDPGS
row,Compound,"hERG current change (%, negative = inhibition) at 1uM [%]"
1,COc1ccc(OC)c(S(=O)(=O)Nc2c(C)nn(C)c2C)c1,11.3
2,COc1ccc(S(=O)(=O)NCCC(=O)N2CCCN(C)CC2)cc1,0.682
3,Cn1c(CNC(=O)CNC(=O)c2cccc(F)c2)cc(=O)n(C)c1=O,21.2
4,CCN(CC)CCCN(C(=O)c1cccs1)c1nc(-c2ccc(OC)cc2)cs1,-71.8
5,COc1ccc(-c2csc(N(CC3CCCO3)C(=O)c3ccco3)n2)cc1 (stereo not drawn),-8.94
6,CCSc1nnc(NC(=O)C2CCN(S(=O)(=O)c3cc(C(F)(F)F)ccc3Cl)CC2)s1,0.203
7,Cc1cc(-c2ccccc2)oc(=O)c1NC(=O)c1ccccc1,12.2
8,COc1ccc(C2C(C(C)=O)=C(O)C(=O)N2c2nccs2)c(OC)c1 (stereo not drawn),8.99
9,Cc1[nH]c(=O)[nH]c(=O)c1S(=O)(=O)N1CCCC(C(=O)N2CCN(c3ccccc3Cl)CC2)C1 (stereo not drawn),11.7
10,COc1ccc(CN2C(=O)c3ccccc3C2=O)cc1C(=O)Nc1ccccc1N1CCOCC1,4.03
11,CCC1(c2ccccc2)NC(=O)N(CC(=O)Nc2cc(C(F)(F)F)ccc2N2CCCC2)C1=O (stereo not drawn),11.6
12,Cn1c(NC(=O)c2ccc(Cl)cc2)cc(=O)n(C)c1=O,23.2
13,CC(C)(C)c1cc(NC(=O)c2cc(F)c(F)c(F)c2F)no1,11.6
14,COCCNC(=O)Cn1cc(C(=O)c2cccs2)c2ccccc21,13.9
15,CC1=CC(C)(C)N=C(Nc2nc(C)c3cc(C)cc(C)c3n2)N1,-18.8
16,COc1cccc(-c2c(C(=O)N/N=C(\C)c3cccs3)nnn2-c2nonc2N)c1,10.1
17,Cc1onc(-c2ccccc2)c1-c1ccnn1S(=O)(=O)c1ccc(Cl)cc1,11.3
18,CCOC(=O)C1C(=O)CC(C)(O)C(C(=O)OCC)C1c1cccc(OC)c1 (stereo not drawn),4.27
19,O=C(NCc1cccs1)Nc1cc(Cl)ccc1Cl,9.81
20,Cc1cc(=O)oc(C)c1C(=O)Nc1ccc(Cl)cn1,16.9
21,COc1cc(C(=O)OCC(=O)c2ccc(S(=O)(=O)N3CCCCC3)cc2)cc(OC)c1OC,10.7
22,CCN(C(=O)COC(=O)c1cc(-c2ccccc2)nc2ccc(Br)cc12)C1CCS(=O)(=O)C1 (stereo not drawn),9.12
23,O=C(O)CC(Cc1ccc(Cl)cc1)C(=O)Nc1ccccc1 (stereo not drawn),11.5

row,Compound,"hERG current change (%, negative = inhibition) at 1uM [%]"
1,O=C(NCCCCc1ccccc1)c1cccc(Br)c1,10.1
2,COc1ccccc1C(c1nnnn1C(C)(C)C)N1CCCCCC1 (stereo not drawn),2.35
3,O=C(CSc1nc(O)c(Cc2ccccc2)c(=O)[nH]1)Nc1nnc(SCc2ccccc2)s1,16.2
4,OCCSc1nncn1/N=C/c1c[nH]c2ccccc12,4.35
5,O=C(O)C1Sc2[nH]c(=O)sc2C2c3ccc(O)cc3OC(=O)C12 (stereo not drawn),18.4
6,C[C@]12CCC(=O)CC1=CCC1C3CC=C(C#N)[C@@]3(C)CC[C@@]12O (stereo partly drawn),15.3
7,Cc1cc(NC(=O)NC(C(F)(F)F)C(F)(F)F)no1,16.7
8,O=C(Nc1cccc(Cl)c1)C1COc2ccccc2O1 (stereo not drawn),14
9,COc1ccc(O)c(C2NC(CC(C)C)(C(=O)O)C3C(=O)N(Cc4ccccc4)C(=O)C23)c1 (stereo not drawn),3.62
10,Cc1ccc(/C=C(/NC(=O)c2ccccc2)C(=O)NCCc2c[nH]c3ccccc23)o1,-0.241
11,CCN(CC)CC(O)Cn1c(-c2cccc(Cl)c2)nc2cc(C)c(C)cc21 (stereo not drawn),-26.6
12,Cc1nc2cc(Cl)ccc2n1CCO,0.961
13,O=C(NNC(=S)NC(=O)c1ccco1)c1ccc(F)cc1,13.5
14,COc1ccc2ccc(O)c(CN3CCN(S(=O)(=O)c4cccc(C(F)(F)F)c4)CC3)c2c1,9.77
15,Cc1ccc(-n2cc(CNC(C)c3cnn(C)c3C)c(-c3ccc(F)cc3)n2)cc1 (stereo not drawn),2.45
16,Cc1ccccc1NC(=O)C[n+]1cc(-c2ccccc2)n2c1CCC2.[Cl-],15.6
17,CCCCC(=O)N/N=C/c1sccc1C,8.42
18,CCOc1ccc(NC(=O)c2cc(Cl)nc3ccccc23)cc1,11.4
19,CC(C)(C)c1ccc(NC(=O)N2CCCN(c3c(Cl)cncc3Cl)CC2)cc1,13.6
20,COc1ccccc1N1CC(C(=O)Nc2nnc(SCc3cccnc3)s2)CC1=O (stereo not drawn),12.1
21,O=C(O)c1cccc(NC(=O)N2C[C@H]3C[C@@H](C2)c2cccc(=O)n2C3)c1,11.4
22,COC(=O)c1ccc(C(C(=O)NC2CCCCC2)N(C(=O)Cc2cccs2)C2CC2)cc1 (stereo not drawn),4.84
